# According to the supplement of paper PMC3334620:
# In all, about 33,000 sequences were measured (“E-score (-0.5 to 0.5)”: median about -0.016, highest 2% from about 0.32 on). Some of the results follow.
# Target: T1, Stp1 (UniProt B3LFK1)
# T1 sequence: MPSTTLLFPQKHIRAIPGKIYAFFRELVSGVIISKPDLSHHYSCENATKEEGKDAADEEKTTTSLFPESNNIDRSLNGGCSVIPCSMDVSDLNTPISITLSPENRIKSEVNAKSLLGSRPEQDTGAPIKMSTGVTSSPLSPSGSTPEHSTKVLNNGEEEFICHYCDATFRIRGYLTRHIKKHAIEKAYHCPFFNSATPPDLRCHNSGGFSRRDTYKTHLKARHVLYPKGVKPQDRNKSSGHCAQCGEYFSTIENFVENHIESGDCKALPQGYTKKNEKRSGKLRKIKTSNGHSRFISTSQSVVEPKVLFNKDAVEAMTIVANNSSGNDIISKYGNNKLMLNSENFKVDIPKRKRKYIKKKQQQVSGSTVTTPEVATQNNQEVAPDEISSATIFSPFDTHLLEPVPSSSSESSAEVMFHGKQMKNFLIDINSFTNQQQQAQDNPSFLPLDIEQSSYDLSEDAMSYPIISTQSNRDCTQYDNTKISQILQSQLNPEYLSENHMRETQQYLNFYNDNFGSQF
# Assay: PBM E-score (8-mer binding enrichment) (E-score (-0.5 to 0.5)); higher = stronger / more preferred TF binding; most listed sequences are background and not binding sites
# Details: protein concentration: 200 nM; construct: GST-full length
# In short: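 Bound GST-tagged yeast transcription factors, applied at about 100-200 nM to double-stranded universal all-10-mer Agilent arrays, were detected with fluorescent anti-GST. Scans were normalised with masliner. A modified Wilcoxon-Mann-Whitney statistic, the E-score, was assigned to each ungapped eight-base word pooled with its reverse complement by the Universal PBM Analysis Suite.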
row,Sequence,PBM E-score
1,ACACGTAA,0.00247
2,CTACTACC,0.00874
3,TGCCTTAA,0.0763
4,ATATAGGG,-0.0382
5,GTCGCCCA,-0.0829
6,CACACTGA,-0.0264
7,CTCACGCC,0.154
8,GTACAGAA,0.109
9,GTGATGTA,0.0415
10,GGGAGACC,-0.355
11,AACCCGCC,-0.00739
12,AAGACAAG,0.168
13,GAAAGGGC,0.165
14,AATCGATC,0.0152
15,GCAAGTAC,-0.0666
16,CTGAGTCC,-0.216
17,AGCATGAC,-0.11
18,AGATGTGG,-0.1
19,CTTGTCAC,-0.0747
20,CGTGGGTA,-0.109
21,CCGAGCGC,0.17
22,TAGTCTAA,-0.222
23,AATTGTTC,0.227
24,CCTAAACA,-0.0254

row,Sequence,PBM E-score
1,ATATCCAA,0.05
2,CGCTAACG,0.274
3,GCAAGGCC,0.151
4,TTCTCCAA,-0.0322
5,ATAGTCGG,-0.212
6,GGCGCGGA,0.337
7,AGTGTGAC,-0.121
8,ACGTCCCC,-0.352
9,CAGTAGGG,-0.134
10,ACAGTAGA,0.122
11,ATCCTAGA,-0.0917
12,AGGGTACG,-0.0774
13,CAGGCTTC,-0.0621
14,CAGTACAG,-0.0899
15,GCCCAACA,-0.0273
16,AATCCCCT,-0.393
17,AATTAGTC,0.0464
18,AGCTGATG,-0.0323
19,CCGGACTC,-0.133
20,CAGTGCGA,-0.0864
21,CCGAAGCC,0.0514
22,AATCACAA,-0.0429
23,AGTCCGAT,-0.182
24,GTCTCAAC,0.00452

row,Sequence,PBM E-score
1,AAGGGCAT,0.0351
2,AGCGGTAC,0.004
3,AAAGGATA,0.206
4,ATTGAGAG,0.143
5,ACTGGTCA,-0.105
6,GATTATAA,0.174
7,GCCGGTCC,-0.0741
8,GCAGAGAA,-0.0358
9,CGCGAGCC,0.1
10,CCGGGGAA,-0.0354
11,AATGGAAA,0.121
12,CGGCTCAC,0.213
13,GTTTACCA,0.121
14,ATCGATAG,0.106
15,CATCTTAG,0.0964
16,GCAGACCA,-0.141
17,ATCTCGGG,-0.143
18,GCACTTTA,0.077
19,ACGCGACA,0.162
20,AAGCAGAG,-0.0857
21,ACTCCTGC,0.0407
22,ACGAGGAA,0.0732
23,GCGTGGTA,-0.0304
24,ACGCGACT,-0.171

row,Sequence,PBM E-score
1,ATCACCTC,-0.0852
2,GTAGGGGA,-0.264
3,ATGCCAAT,0.207
4,AGCGTCCC,-0.218
5,GAATAAAC,0.139
6,AATTTATA,0.224
7,CATGAAGG,0.0782
8,ACTAGCTC,0.00118
9,CCGTCTCA,0.167
10,GCGCGTCA,0.119
11,ATTGGAGG,-0.0956
12,CATTCGGG,-0.118
13,AGCAAGTG,-0.0954
14,CAATACGG,0.32
15,CCGTCGCA,0.138
16,AAGGCCTT,-0.102
17,ATGGTTAA,0.136
18,CTTGTTAC,-0.0189
19,CGACTACC,-0.22
20,ATGCGACC,0.0512
21,GCATCCAA,-0.11
22,GGGCGTCA,-0.037
